27 variants from the RNAGym collection of RNA variant scans (doi:10.1101/gad.245936.114) can be followed below.

Variants at the floor of the assay are shown more often than the library holds them.

B1: tRNA (parent)
chain: CUCUCGGUAGCCAAGUUGGUUUAAGGCGCAAGACUUUAAUUUAUCACUACGAAAUCUUGAGAUCGGGCGUUCGACUCGCCCCCGGGAGAUUUUUUCCUCGAGCAA

Variants of B1 are the subject of the series. Description: nonsense suppression (GFP-seq) (ratio to wild type); higher = more function; SUP4oc tRNA, yeast GFP reporter sort-seq. The method in brief:
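Raffinose/galactose medium with 80 mg/L adenine was used to grow yeast carrying genome-integrated tRNA variants (~3% random-mutation library), RFP, and a galactose-driven GFP ochre reporter. Cells went into GFP/RFP bins, which were Illumina-sequenced, and variants with ≥100 reads and ≥30 cells were scored. Nonsense suppression (GFPSEQ) is the per-bin median GFP/RFP weighted by estimated cell share and expressed relative to the unmutated parent tRNA.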
As to CUCUCGGUAGCCAAGUUGGUUUAAAGCGCAAGACUUUAAUUUAUCACUACGAAAUCUCGGGAUCGGGCGUUCGACUCGCCCCCGGGAGAUUUUUUCCUCGAGCAA, the nonsense suppression was ≤ 0.026.

Regarding CUCUCGGUAGCCGAGUUGGUUUAAGGCGCAAGACUUUAAUUUAUCACUACGAAAUCUUGAGAUCGGGCGUUCGACUCGCCCCCGGGAUAUUUUUUCCUCGAGCAA, the nonsense suppression is ≤ 0.026.

Turning to CACUCGGUAGCCAAGUUGGGUUAAGGCUCAAGACUUUAAUUUAUCACUACGAAAUCUUGAGAUUGGGCGUUCGACUCGCCCCCGGGAGAUUUUUUCCUCGAGCAA, the nonsense suppression is ≤ 0.026.

Consider CUCUCGGUAGCCAAGUUUGUUUAAGGCGCAAGACUUUAAUUUAUCACUACGAAAUCUUGAGAUCGGGCGUUCGACUCGCCCCCGGGAUAUUUUUUCCUCGAGCAA, for which the nonsense suppression was ≤ 0.026.

As for CUUUCGAUAGCCAAGUUGGUUUAAGGCGCAAGACUUUAAUUUAUCACUACGAAAUCGUGAGAUCGGGCGUUCGACUCGCCCUGGGGAGAUUUUUUCCUCGAGCAA, the nonsense suppression was ≤ 0.026.

Consider CUCUCGGUAACCAAGUUGGUGUAACGCGCAAGACUUUAAUUUAUCACUACGAAAUCUUGAGAUCGGUCGUUCGACUCACCCACGGAAGAUUUUUUCCUCGAGCAA, for which the nonsense suppression is ≤ 0.026.

Regarding CUCUCGGUAGACAAGCUGGAUUAAGGCGCAAGACUUUAAUUUAUCACUACGAAAUCUUGAGAUCGGGCGUUCGACUCGCCCCCGGGAGAUUUUUUCCUCGAGCAA, the nonsense suppression is ≤ 0.026.

For the variant CUCUCGGUUGCACAGUUGGUUUAAGGCGCAAGACUUUAAUUUAUCACUACGAAAUCUUGAGAUCGGGCGUUUGACUCGACCCCGGGAGAUUUUUUCCUCGAGCAA, the nonsense suppression was ≤ 0.026.

CUCUCGGUAGCCAAGUUGGUUUAAGGCGCAAAACUUUAAUUUAUCACUACGAAAUCUUGAGAUCGGGCGAUAGACUCGCCCCCGGGAGAUUUUUUCCUCGAGCAA: the nonsense suppression is ≤ 0.026.

Turning to CUCUCGGUAGCCAAGUUGGUUUUAGGCGCAAGACUUUAAUUUAUCACUACGAAAUCUUGAGGUCGGGCGUUCUACUCGCCCCCGGGAGAUUUUUUCCUCGAGCAA, the nonsense suppression is ≤ 0.026.

As to CUCUCGGUAGCCAAGUUGGUUUAAGGCGCAAGACUUUAAUUUAUCACUACGAAAUCUUGUGAUCGGGCGUUUGACUCGCCCCCGGGAGAUUUUUUCCUCGAGCAA, the nonsense suppression was ≤ 0.026.

As for CUCUCGGUAGCCAAGUUGGUUUAAGGCGCAAGACUUUAAUUUAUCACUACGAAAUCUAGAGACCGGACGUUCGACCCGCCCCCGGGAGAUUUUUUCCUCGAGCAA, the nonsense suppression is ≤ 0.026.

Consider CUCUCGGUAGCCAAGUUGGUCUAAGGCGCAAGACUUUAAUUUAUCACUACGAAAUCUUGAGAUCGGGCGGUCGACUCGCCCCCGGGAGAUUUUUUCCUCGAGCAA, for which the nonsense suppression was ≤ 0.026.

For CUCUCUGUAGCCAAGUAGGUUUAAGGCGCAAGCCUUUAAUUUAUCACUACGAAAUCUUGAGAUCGGGCGUUCGACUCGCCCCCGGGAGAUUUUUUCCUCGAGCAA, the nonsense suppression is ≤ 0.026.

For the variant CUCUCGGUAGCUAACUUGGUUUAAGGCGCAAGACUUUAAUUUAUCACUACGAAAUCUUGAGAUCGGGCGUUGGACUGGCCCCCGGGAGAUUUUUUCCUCGAGCAA, the nonsense suppression was ≤ 0.026.

With CUCUCGGUAGCCAAGUUGGUUUAAGGCGCAAGACUUUAAUUUAUCACUACGAACUCUUGAGCUCGGGCGUUCGACUCGCCCCCGGGAGAUUUUUUCCUCGAGCAA, the nonsense suppression was ≤ 0.026.

For CUCUCGGUAGCCAAGUUGGUUUAGGGCGCAAGACUUUAAUUUAUCACUACGAAAUCUAGAGAUCGGGCGUUCGACUCGCCCCCCGGAGAUUUUUUCCUCGAGCAA, the nonsense suppression was ≤ 0.026.

Regarding CUCUCAGUAGCCAAGUUGGUUUAAGGCGCAAGACUUUAAUUUAUCACUACGAAAUCUUGAGAUCGGGCGUUCGACCCGCCCCCGGGAGAUUUUUUCCUCGAGCAA, the nonsense suppression was ≤ 0.026.

CUCUCGGUGGCCAAGUUGUUUUAAGGCGCAAGACUUUAAUUUAUCACUACGAAAUCUUGAGACCGGGCGUUCGACUCGCCCCCGGGAGAUUUUUUCCUCGAGCAA: the nonsense suppression was ≤ 0.026.

As to CUCUCGGUACGCAAGUUGGUUUAAGGCGCAAGACUUUAAUUUAUCACUACGAAAUCUUGAGAUCGGGUGUCCGACUCGCCCCCGGGAGAUUUUUUCCUCGAGCAA, the nonsense suppression was ≤ 0.026.

In the case of CUCUCGGUAGCCAAGUUGGUUUCAGGCGCAAGACUUUAAUUUAUCACUACGAAAUCUUGACAUCGGGCGUUCGACUCGCCCCCGGGAGAUUUUUUCCUCGAGCAA, the nonsense suppression was ≤ 0.026.

As for CUCUCGGUAGCAAAGUUGGUUUAAGGCGCAAGAGUUUAAUUUAUCACUACGAAAUCUUGAGAUCGGGCGUUCGCCUCGCCCCCGGGAGAUUUUUUCCUCGAGCAA, the nonsense suppression was ≤ 0.026.

As to CUCUCGGUAGCCAAGUUGGUUUAAGGCACAAGACUUUAAUUUAUCACUACGAAAUCUUGAGAUCGGGCGUUCGACUCGCCACCGGGAGAUUUUUUCCUCGAGCAA, the nonsense suppression is ≤ 0.026.

Turning to CUCUCGGUAGCCAAGUUGGUUUAAGGCGCAAUACUUUAAUUUAUCACUACGAAAUCUUGAGAUCGGGCGUGCGACUCGCCCCCGGGAGAUUUUUUCCUCGAGCAA, the nonsense suppression was ≤ 0.026.

Regarding CUCUCGGUAGCCAAGUUGGUUUAAGGCGCAAGACUUUAAUUUAUCACUACGAAAUCUUGAGAUCGGGCGUUCGACUCACGCCCGGGAGAUUUUUUCCUCGAGCAA, the nonsense suppression is ≤ 0.026.

Regarding CUCUCGGUAGCCAAGUUGGUUUAAGGCGCAAGACUUUAAUUUAUCACUACGAAAUCUUGAGAUCGGGAGUUCGACUCGCCCUCGGGAGAUUUUUUCCUCGAGCAA, the nonsense suppression is ≤ 0.026.

Take CUCUCGGUAGCCAAGUUGGUUUAAGGCGCAAGGCUUUAAUUUAUCACUACGAAAUCUUGAGAUCGGGCGUUCGACUCGACACCGGGAGAUUUUUUCCUCGAGCAA: the nonsense suppression was ≤ 0.026.
